The values that follow come from publication PMC5892938.

Some of the results follow. At the low end of the ranking the order means little.

The test concerns the target GST-SBP-SLBP (stem-loop binding protein) (UniProt Q14493). Briefly: targeted RNA Bind-n-Seq.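 Also: DESeq read counts versus GST-SBP nonspecific binding control pulldown.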 Conditions: RBNS binding buffer: 25 mM Tris pH 7.5, 150 mM KCl, 3 mM MgCl2, 0.1% Tween, 0.5 mg/mL BSA, 1 mM DTT; 27 nM protein, 750 pM RNA pool; temperature not stated; high values mean tight binding.
In the case of “GGUCACGUCUCAAUCAACUCAUCUCCAGGAGUUUCCUCCUGCAUUCUCAACAGCUCGCAGUCAAG”, the binding signal (log2 fold change) is 0.086.
As for “GGUCACGUCUCAAUCAACUCAACUUCAGGAGUUUGCUCCUGUUUUUUCAACAGCUCGCAGUCAAG”, the binding signal (log2 fold change) worked out at 0.066.
Regarding “GGUCACGUCUCAAUCAACUCAAUUCCAGGAGUUUCCUCCUGCAUAUUCAACAGCUCGCAGUCAAG”, the binding signal (log2 fold change) is 0.179.
On to “GGUCACGUCUCAAUCAACUCAUCGGCCAGGGAAAUCCCUGGGAAAUUCAACAGCUCGCAGUCAAG”, for which the binding signal (log2 fold change) was -0.153.
In the case of “GGUCACGUCUCAAUCAACUCAUUUGCAGGAGUUUCCUCCUGGUAUCUCAACAGCUCGCAGUCAAG”, the binding signal (log2 fold change) is -0.05.
As for “GGUCACGUCUCAAUCAACUCAUCCUCCAGGGAAAGCCCUGGUAUACUCAACAGCUCGCAGUCAAG”, the binding signal (log2 fold change) is -0.184.
Next, “GGUCACGUCUCAAUCAACUCUAUCCCCAGGGAAAGCCCUGGCAAAUUCAACAGCUCGCAGUCAAG”: 0.0174; “GGUCACGUCUCAAUCAACUCUUUUCCCAGGGAAAUCCCUGGUUAUCUCAACAGCUCGCAGUCAAG”: -0.000882; “GGUCACGUCUCAAUCAACUCUUUUCCAGGAGUUUUCUCCUGCUUACUCAACAGCUCGCAGUCAAG”: 0.0404.
Turning to “GGUCACGUCUCAAUCAACUCAAUCUCAGGAGUUUGCUCCUGUAAAUUCAACAGCUCGCAGUCAAG”, the binding signal (log2 fold change) is 0.105.
Consider “GGUCACGUCUCAAUCAACUCUUCUUCAGGAGUUUUCUCCUGUUAUCUCAACAGCUCGCAGUCAAG”, for which the binding signal (log2 fold change) was 0.00981.
For “GGUCACGUCUCAAUCAACUCAAUCUCCAGGGAAAGCCCUGGCUUAUUCAACAGCUCGCAGUCAAG”, the binding signal (log2 fold change) is -0.0396.
As to “GGUCACGUCUCAAUCAACUCAACUUCAGGAGUUUACUCCUGUUUUCUCAACAGCUCGCAGUCAAG”, the binding signal (log2 fold change) was -0.075.
For “GGUCACGUCUCAAUCAACUCAUUAGAGGGGGGGAAAACCCCUUUGCCCUCACUUUCAACAGCUCGCAGUCAAG”, the binding signal (log2 fold change) was -0.739.
On to “GGUCACGUCUCAAUCAACUCUUCCUCCAGGGAAAUCCCUGGCUAUUUCAACAGCUCGCAGUCAAG”, for which the binding signal (log2 fold change) was -0.174.
As to “GGUCACGUCUCAAUCAACUCUUCUUCCAGGGAAAGCCCUGGUUUUUUCAACAGCUCGCAGUCAAG”, the binding signal (log2 fold change) was -0.149.
Regarding “GGUCACGUCUCAAUCAACUCAUACGAGGGGGGGAAAACCCCUUUACCCUCACAUUCAACAGCUCGCAGUCAAG”, the binding signal (log2 fold change) is -0.606.
Regarding “GGUCACGUCUCAAUCAACUCCAUAGAGGGGGGGAAAACCCCUUUGCCCUCGAAUUCAACAGCUCGCAGUCAAG”, the binding signal (log2 fold change) was -0.668.
In the case of “GGUCACGUCUCAAUCAACUCUAUCGAGGGGGGGAAAACCCCUUUACCCUCUCCAUCAACAGCUCGCAGUCAAG” it was -0.0608; in that of “GGUCACGUCUCAAUCAACUCUAUUCCAGGAGUUUUCUCCUGUUAUCUCAACAGCUCGCAGUCAAG”, 0.13; in that of “GGUCACGUCUCAAUCAACUCAAUUCCAGGAGUUUACUCCUGCUAUCUCAACAGCUCGCAGUCAAG”, 0.009.
In the case of “GGUCACGUCUCAAUCAACUCUUCAGAGGGGGGGAAAACCCCUUUGCCCUCACUAUCAACAGCUCGCAGUCAAG”, the binding signal (log2 fold change) is -0.266.
Next, “GGUCACGUCUCAAUCAACUCUUCGCCCAGGGAAACCCCUGGUAAUCUCAACAGCUCGCAGUCAAG”: 0.384; “GGUCACGUCUCAAUCAACUCACAAGAGGGGGGGAAAACCCCUUUACCCUCAUUCUCAACAGCUCGCAGUCAAG”: -0.322.
Take “GGUCACGUCUCAAUCAACUCCAUCGAGGGGGGGAAAACCCCUUUGCCCUCACAAUCAACAGCUCGCAGUCAAG”: the binding signal (log2 fold change) was 0.0821.
With “GGUCACGUCUCAAUCAACUCAUCCUCCAGGGAAAUCCCUGGCUUUCUCAACAGCUCGCAGUCAAG”, the binding signal (log2 fold change) is -0.0478.
For “GGUCACGUCUCAAUCAACUCUAUCCCCAGGGAAAACCCUGGUUAUCUCAACAGCUCGCAGUCAAG”, the binding signal (log2 fold change) was determined as 0.0418.
“GGUCACGUCUCAAUCAACUCUAUUUCCAGGGAAAACCCUGGCUUAUUCAACAGCUCGCAGUCAAG”: the binding signal (log2 fold change) is -0.128.
Regarding “GGUCACGUCUCAAUCAACUCAACUUCCAGGGAAACCCCUGGCUUAUUCAACAGCUCGCAGUCAAG”, the binding signal (log2 fold change) is -0.237.
In the case of “GGUCACGUCUCAAUCAACUCAACUUCCAGGGAAAACCCUGGUUAUCUCAACAGCUCGCAGUCAAG” it was 0.208.
Turning to “GGUCACGUCUCAAUCAACUCAACUUCAGGAGUUUACUCCUGUAUACUCAACAGCUCGCAGUCAAG”, the binding signal (log2 fold change) was 0.0316.
On to “GGUCACGUCUCAAUCAACUCAUUUUCAGGAGUUUUCUCCUGCUUUUUCAACAGCUCGCAGUCAAG”, for which the binding signal (log2 fold change) is -0.11.
Next, “GGUCACGUCUCAAUCAACUCCCUAGAGGGGGGGAAAACCCCUUUACCCUCAAUGUCAACAGCUCGCAGUCAAG”: 0.558.
In the case of “GGUCACGUCUCAAUCAACUCUUACGAGGGGGGGAAAACCCCUUUACCCUCAUUAUCAACAGCUCGCAGUCAAG” it was -0.513; in that of “GGUCACGUCUCAAUCAACUCAUCUCCCAGGGAAACCCCUGGUAAUUUCAACAGCUCGCAGUCAAG”, -0.157; in that of “GGUCACGUCUCAAUCAACUCUUCCCCCAGGGAAAACCCUGGCAUAUUCAACAGCUCGCAGUCAAG”, -0.128.
As for “GGUCACGUCUCAAUCAACUCUUAAGAGGGGGGGAAAACCCCUUUACCCUCCACGUCAACAGCUCGCAGUCAAG”, the binding signal (log2 fold change) is -0.194.
Turning to “GGUCACGUCUCAAUCAACUCUUUUCCCAGGGAAACCCCUGGCUUUUUCAACAGCUCGCAGUCAAG”, the binding signal (log2 fold change) was -0.104.
Take “GGUCACGUCUCAAUCAACUCAUUCUCAGGAGUUUACUCCUGCUAAGUCAACAGCUCGCAGUCAAG”: the binding signal (log2 fold change) was -0.109.
For the sequence “GGUCACGUCUCAAUCAACUCAUCCCCAGGAGUUUCCUCCUGCAUUUUCAACAGCUCGCAGUCAAG”, the binding signal (log2 fold change) is -0.0674.
For “GGUCACGUCUCAAUCAACUCAAAAGAGGGGGGGAAAACCCCUUUGCCCUCACUUUCAACAGCUCGCAGUCAAG”, the binding signal (log2 fold change) worked out at 0.573.
As to “GGUCACGUCUCAAUCAACUCUUCCUCAGGAGUUUCCUCCUGCUUUUUCAACAGCUCGCAGUCAAG”, the binding signal (log2 fold change) is 0.179.
For the sequence “GGUCACGUCUCAAUCAACUCAUCGUCCAGGGAAAGCCCUGGCUUAUUCAACAGCUCGCAGUCAAG”, the binding signal (log2 fold change) is 0.156.
For the sequence “GGUCACGUCUCAAUCAACUCAUCCGCAGGAGUUUACUCCUGGUAAUUCAACAGCUCGCAGUCAAG”, the binding signal (log2 fold change) is 0.207.
For the sequence “GGUCACGUCUCAAUCAACUCAUUCCCCAGGGAAAUCCCUGGUUUUUUCAACAGCUCGCAGUCAAG”, the binding signal (log2 fold change) is 0.0742.
Next, “GGUCACGUCUCAAUCAACUCAGUCUCAGGAGUUUCCUCCUGUUUAUUCAACAGCUCGCAGUCAAG”: -0.00694; “GGUCACGUCUCAAUCAACUCAUUCCCAGGAGUUUCCUCCUGCAUACUCAACAGCUCGCAGUCAAG”: 0.0898.
As to “GGUCACGUCUCAAUCAACUCAAUUUCAGGAGUUUACUCCUGCUAAUUCAACAGCUCGCAGUCAAG”, the binding signal (log2 fold change) is -0.0775.
As for “GGUCACGUCUCAAUCAACUCUUUCCCCAGGGAAAUCCCUGGUUAUUUCAACAGCUCGCAGUCAAG”, the binding signal (log2 fold change) is -0.185.
“GGUCACGUCUCAAUCAACUCAGUCUCAGGAGUUUCCUCCUGUUUUUUCAACAGCUCGCAGUCAAG”: the binding signal (log2 fold change) came to 0.135.
“GGUCACGUCUCAAUCAACUCUUCUUCAGGAGUUUACUCCUGCUAUCUCAACAGCUCGCAGUCAAG”: the binding signal (log2 fold change) is 0.209.
Consider “GGUCACGUCUCAAUCAACUCUUUAGAGGGGGGGAAAACCCCUUUACCCUCGAUAUCAACAGCUCGCAGUCAAG”, for which the binding signal (log2 fold change) is 0.336.
In the case of “GGUCACGUCUCAAUCAACUCUUUUUCAGGAGUUUUCUCCUGCUAAUUCAACAGCUCGCAGUCAAG” it was 0.18.
Next, “GGUCACGUCUCAAUCAACUCAUUUCCCAGGGAAAUCCCUGGCAUUUUCAACAGCUCGCAGUCAAG”: 0.236; “GGUCACGUCUCAAUCAACUCAAUGUCAGGAGUUUACUCCUGUUUUUUCAACAGCUCGCAGUCAAG”: 0.164.
As for “GGUCACGUCUCAAUCAACUCAACUCCCAGGGAAAUCCCUGGUUUACUCAACAGCUCGCAGUCAAG”, the binding signal (log2 fold change) was 0.248.
For the sequence “GGUCACGUCUCAAUCAACUCUUCCUCCAGGGAAAUCCCUGGUUAUUUCAACAGCUCGCAGUCAAG”, the binding signal (log2 fold change) is -0.292.
In the case of “GGUCACGUCUCAAUCAACUCUUCCUCCAGGGAAAACCCUGGCUAUGUCAACAGCUCGCAGUCAAG”, the binding signal (log2 fold change) amounted to 0.183.
As for “GGUCACGUCUCAAUCAACUCUUCCCCAGGAGUUUUCUCCUGCUAAUUCAACAGCUCGCAGUCAAG”, the binding signal (log2 fold change) was found to be 0.0161.
For “GGUCACGUCUCAAUCAACUCACAAGAGGGGGGGAAAACCCCUUUGCCCUCCAUUUCAACAGCUCGCAGUCAAG”, the binding signal (log2 fold change) is -0.142.
As to “GGUCACGUCUCAAUCAACUCAAUCUCAGGAGUUUCCUCCUGUAAAGUCAACAGCUCGCAGUCAAG”, the binding signal (log2 fold change) worked out at 0.042.
Next, “GGUCACGUCUCAAUCAACUCCAAAGAGGGGGGGAAAACCCCUUUGCCCUCACUUUCAACAGCUCGCAGUCAAG”: 0.0464; “GGUCACGUCUCAAUCAACUCAAGUCCAGGAGUUUCCUCCUGCAAUCUCAACAGCUCGCAGUCAAG”: 0.0474.
Regarding “GGUCACGUCUCAAUCAACUCAAUCCCCAGGGAAAUCCCUGGUAUAUUCAACAGCUCGCAGUCAAG”, the binding signal (log2 fold change) was -0.0896.
Consider “GGUCACGUCUCAAUCAACUCAUUCGCAGGAGUUUUCUCCUGGUUAUUCAACAGCUCGCAGUCAAG”, for which the binding signal (log2 fold change) was 0.0602.
For the sequence “GGUCACGUCUCAAUCAACUCAUCCCCCAGGGAAAACCCUGGUUUUCUCAACAGCUCGCAGUCAAG”, the binding signal (log2 fold change) was -0.18.
“GGUCACGUCUCAAUCAACUCUUCCGCAGGAGUUUACUCCUGGUAAUUCAACAGCUCGCAGUCAAG”: the binding signal (log2 fold change) is -0.145.
In the case of “GGUCACGUCUCAAUCAACUCUUCUCCCAGGGAAAGCCCUGGCAUUUUCAACAGCUCGCAGUCAAG” it was 0.286; in that of “GGUCACGUCUCAAUCAACUCUUUUCCCAGGGAAACCCCUGGCAUAUUCAACAGCUCGCAGUCAAG”, 0.131.
For “GGUCACGUCUCAAUCAACUCAGUUCCAGGAGUUUCCUCCUGCAUUCUCAACAGCUCGCAGUCAAG”, the binding signal (log2 fold change) was 0.0122.
For “GGUCACGUCUCAAUCAACUCAUCCUCAGGAGUUUCCUCCUGUUAUUUCAACAGCUCGCAGUCAAG”, the binding signal (log2 fold change) worked out at 0.129.
With “GGUCACGUCUCAAUCAACUCUACUUCAGGAGUUUUCUCCUGCAUUCUCAACAGCUCGCAGUCAAG”, the binding signal (log2 fold change) was -0.00921.
In the case of “GGUCACGUCUCAAUCAACUCAAUCCCAGGAGUUUCCUCCUGCUAUGUCAACAGCUCGCAGUCAAG” it was 0.286; in that of “GGUCACGUCUCAAUCAACUCAAUCUCCAGGGAAAGCCCUGGCAAAUUCAACAGCUCGCAGUCAAG”, -0.00557.
